The values that follow come from patent US20230340142A1 (SUZHOU NEOLOGICS BIOSCIENCE, published 2023).

The target in assay [1] is T1, human PD-L1 recombinant protein, PD-L1-his (human, UniProt Q9NZQ7 fragment).
T1 construct: also called PD-L1 with a his-tag; not shown: his-tag
As to the kind of experiment: Gator BLI; fusion protein on HFC sensor, antigen in solution; 1:1 fit.

Assay [2] has as its target T2, TGF-beta 1 recombinant protein (Example 11) (UniProt P01137 fragment, limits assumed).
T2 construct: also called TGF- 1; TGF-1
T2 sequence (P01137 279-390 limits assumed): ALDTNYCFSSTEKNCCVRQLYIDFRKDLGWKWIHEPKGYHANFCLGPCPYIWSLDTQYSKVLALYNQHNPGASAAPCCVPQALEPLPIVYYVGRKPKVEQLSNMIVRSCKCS
The assay is described as above.

The target in a further assay is T3, human PD-L1 (human, UniProt Q9NZQ7 fragment, limits assumed).
T3 construct: also called hPD-L1
Put plainly: sandwich ELISA: coated hPD-L1, titrated fusion protein, then rhTGF-β, biotinylated anti-TGF-β antibody and streptavidin-HRP, OD450.

Sequence of human PD-L1 (Q9NZQ7 19-238 limits assumed): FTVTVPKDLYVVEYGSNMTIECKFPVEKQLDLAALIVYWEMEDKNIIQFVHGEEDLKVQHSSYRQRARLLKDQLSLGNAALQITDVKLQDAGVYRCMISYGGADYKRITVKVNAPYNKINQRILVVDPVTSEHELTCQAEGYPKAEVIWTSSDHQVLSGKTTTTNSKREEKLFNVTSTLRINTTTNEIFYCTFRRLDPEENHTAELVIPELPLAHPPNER

B1: C fusion protein (SEQ ID NOs:160 and 164) (other)
heavy: QVQLVQSGAEVKKPGASVKVSCKASGFNIKDTYMHWVRQAPGQGLEWIGRIDPANGNTKYDPKFQGRVTITTDTSASTAYLELSSLRSEDTAVYYCARGLGRWFAYWGQGTTVTVSSASTKGPSVFPLAPSSKSTSGGTAALGCLVKDYFPEPVTVSWNSGALTSGVHTFPAVLQSSGLYSLSSVVTVPSSSLGTQTYICNVNHKPSNTKVDKRV[human IgG1 Fc omitted]PEAPTDPEAPTDPEAPTDIPPHVQKSVNNDMIVTDNNGAVKFPQLCKFCDVRFSTCDNQKSCMSNCSITSICEKPQEVCVAVWRKNDENITLETVCHDPKLPYHDFILEDAASPKCIMKEKKKPGETFFMCSCSSDECNDNIIFS
light: DIQMTQSPSSLSASVGDRVTITCQASQDVSNAVAWYQQKPGKAPKLLIYSASNLYTGVPSRFSGSGSGTDFTFTISSLQPEDIATYYCQQHDSTPLTFGQGTKLELKRTVAAPSVFIFPPSDEQLKSGTASVVCLLNNFYPREAKVQWKVDNALQSGNSQESVTEQDSKDSTYSLSSTLTLSKADYEKHKVYACEVTHQGLSSPVTKSFNRGEC
notes: Anti-PD-L1 antibody (humanized Clone C) heavy chain linked to a TGFbRII ECD trap
For B1, in assay [1], the Kd came out at 5.03 nM, the dissociation rate constant (koff) stood at 0.000764 s⁻¹ and the kon was found to be 152000 M⁻¹ s⁻¹. Besides, in assay [2], the Kd worked out at 0.75 nM, the koff is 0.00171 s⁻¹ and the kon was 2.2e+06 M⁻¹ s⁻¹. The “EC50 (read off the curve)” value with human PD-L1 is roughly 7 ng/mL.

B2: D fusion protein (SEQ ID NOs:159 and 163) (other)
heavy: QVQLVQSGAEVKKPGASVKVSCKASGYSFTGYTMNWVKQAHGQGLEWMGLIIPYNGGISYNQKFKDRVTMTVDTSISTAYMELSRLRSDDTAVYYCASLITTAPRDSMDYWGQGTLVTVSSASTKGPSVFPLAPSSKSTSGGTAALGCLVKDYFPEPVTVSWNSGALTSGVHTFPAVLQSSGLYSLSSVVTVPSSSLGTQTYICNVNHKPSNTKVDKRV[human IgG1 Fc omitted]PEAPTDPEAPTDPEAPTDIPPHVQKSVNNDMIVTDNNGAVKFPQLCKFCDVRFSTCDNQKSCMSNCSITSICEKPQEVCVAVWRKNDENITLETVCHDPKLPYHDFILEDAASPKCIMKEKKKPGETFFMCSCSSDECNDNIIFS
light: DIQMTQSPSSLSASVGDRVTITCRASQDISNYLNWYQQKPGKAPKLLIYYTSKLHSGVPSRFSGSGSGTDFTLTISSLQPEDIATYYCQQGDALPWTFGGGTKVEIKRTVAAPSVFIFPPSDEQLKSGTASVVCLLNNFYPREAKVQWKVDNALQSGNSQESVTEQDSKDSTYSLSSTLTLSKADYEKHKVYACEVTHQGLSSPVTKSFNRGEC
notes: Anti-PD-L1 antibody (humanized Clone D) heavy chain linked to a TGFbRII ECD trap
On to B2, for which, in assay [1], the Kd is 6.21 nM, the koff was 0.000848 s⁻¹ and the kon is 137000 M⁻¹ s⁻¹. Moreover, in assay [2], the Kd was determined as 0.785 nM, the koff is 0.00179 s⁻¹ and the association rate constant (kon) stood at 2.28e+06 M⁻¹ s⁻¹. Further, the “EC50 (read off the curve)” value with human PD-L1 was roughly 3 ng/mL.
